The campaign covered roughly 390,000 compounds. About 4,000 (1%) were called active. This list was built around the results that the source calls inconclusive (neither active nor inactive); the mix of calls is not that of the screen. The call rests on the fitted dose curve; in most records, active means well fitted inhibition curve with a large enough effect; inconclusive means small, poorly fitted or top-dose-only effect; inactive means no such curve, though single readings can be large or run the other way. Potencies of inconclusive entries are doubtful fits and often do not repeat.
target: Thioredoxin reductase 1, cytoplasmic (Rattus norvegicus) (UniProt O89049); experiment: qHTS Assay for Inhibitors of Mammalian Selenoprotein Thioredoxin Reductase 1 (TrxR1): qHTS; conditions: recombinant rTrxR1, NADPH fluorescence consumption, selenite substrate; series mostly up to 114 µM; activity change, negative = inhibition: at the top concentration; further: nearly all actives have a fitted effect of over 65% in size
How it was run: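 Rat TrxR1 (90 nM in the dispensed reagent) was pre-reduced with 400 uM NADPH for 5 min at room temperature, then incubated with compound for 15 min. After 400 uM selenite was added, NADPH fluorescence (Ex 340/Em 450 nm) was followed for 8 min.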
On the % scale 0 is the no-effect control and ±100 the full control effect; potency means the concentration at half of the fitted maximal effect; tags describe the fitted curve by direction and shape.

UniProt O89049, sequence (O89049 whole entry, looked up): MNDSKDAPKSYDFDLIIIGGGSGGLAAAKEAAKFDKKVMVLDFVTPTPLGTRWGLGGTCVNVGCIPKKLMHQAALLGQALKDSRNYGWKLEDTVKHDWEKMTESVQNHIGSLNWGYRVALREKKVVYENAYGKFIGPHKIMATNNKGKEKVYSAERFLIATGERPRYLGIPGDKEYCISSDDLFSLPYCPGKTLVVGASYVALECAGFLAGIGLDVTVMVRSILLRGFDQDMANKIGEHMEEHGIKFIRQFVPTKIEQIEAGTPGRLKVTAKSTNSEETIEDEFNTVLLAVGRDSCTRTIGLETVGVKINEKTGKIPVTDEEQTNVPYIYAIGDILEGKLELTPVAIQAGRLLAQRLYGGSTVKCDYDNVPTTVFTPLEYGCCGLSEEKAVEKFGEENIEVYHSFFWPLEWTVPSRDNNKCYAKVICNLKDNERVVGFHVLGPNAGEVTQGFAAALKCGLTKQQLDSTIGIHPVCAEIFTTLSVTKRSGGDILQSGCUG

Which “activity change, negative = inhibition” value does the source give for `C=CCn1c(SCC(=O)N2CCN(CCO)CC2)nc2sc3c(c2c1=O)CCC3` here?
The value was inactive: -15.7%.

For `COc1cccc(CNC(=O)c2sc3ncccc3c2-n2c(C)ccc2C)c1OC`, which “activity change, negative = inhibition” value is on record?
The value was inactive: 20% [at 57.1 µM].

`COc1ccc(N=C2CCS(=O)(=O)c3sccc32)cc1` was tested. Which Potency did it give?
The Potency was inconclusive: 25.1 µM [inhibitor, single point].

For `Cc1ccc(NC(=O)CC2OC(=O)c3ccccc32)cc1S(=O)(=O)N1CCCCCC1` (stereo not given), which Potency is on record?
Its Potency is inconclusive: 79.4 µM [inhibitor, single point].

`CC1(C)COC(/C=C/c2cccc([N+](=O)[O-])c2)=N1` was tested. Which Potency did it give?
Its Potency is inconclusive: 14.1 µM [inhibitor, partial curve, poor fit].

`COC(=O)C1=C(NC(=O)COc2ccc3ccccc3c2)CCS1` was tested. Which Potency did it give?
The Potency was active: 79.4 µM.

For `O=C(Nc1cccc(-c2csc(Nc3ccc(Cl)cc3)n2)c1)c1cc([N+](=O)[O-])cc(C(F)(F)F)c1`, which “activity change, negative = inhibition” value is on record?
Its value is inactive: 8.59%.

Which Potency does the source give for `CC(C)(C)c1nnc(NC(=O)c2cccnc2Cl)s1` here?
The Potency was inconclusive: 50.1 µM [inhibitor, partial curve].

How did the Potency turn out when `O=[N+]([O-])/C(=C\Nc1ccc(F)cc1F)S(=O)(=O)c1ccccc1` was run?
The Potency was inconclusive: 50.1 µM [inhibitor, partial curve, poor fit].

`C#CCOCCOCCOCCNc1nc(N2CCN(C(=O)CCCCCCCCCCNC(=O)[C@H]([C@@H](C)CC)n3cc(CCCCN=C(N)N)nn3)CC2)nc(N2CCN(C(=O)CCCCCCCCCCNC(=O)[C@H](CCCCN)n3cc(C)nn3)CC2)n1` was tested. Which Potency did it give?
The Potency was inconclusive: 31.6 µM [inhibitor, partial curve].

Which Potency does the source give for `CCOC(=O)c1sc(NC(=O)CSc2nnc(-c3ccco3)n2CC)c(C(=O)OCC)c1C` here?
Its Potency is inconclusive: 3.16 µM [inhibitor, full curve].

Which Potency does the source give for `O=C(COC(=O)c1ccc([N+](=O)[O-])o1)NCCCc1ccccc1` here?
The Potency was inconclusive: 17.8 µM [inhibitor, full curve].

How did the “activity change, negative = inhibition” value turn out when `O=S(=O)(NCC1CC1)c1cccc(S(=O)(=O)N2CCCC2)c1` was run?
Its value is inactive: 20.4%.

`Cc1cc(C)c(C)c(S(=O)(=O)N2CCN(c3ncnc4ccccc34)CC2)c1C` was tested. Which “activity change, negative = inhibition” value did it give?
Its value is inactive: 60.4%.

How did the Potency turn out when `ClC(CCN1CCN(Cc2ccccc2)CC1)c1ccccc1` (stereo not given) was run?
Its Potency is inconclusive: 15.8 µM [inhibitor, partial curve].

Which “activity change, negative = inhibition” value does the source give for `Cc1ccc2nc(-c3ccsc3)c(NC3CCCC3)n2c1` here?
The value was inactive: 36.4%.

With `CCn1c2ccccc2c2cc(NC(=O)c3ccco3)ccc21` as the compound, how does the Potency read?
Its Potency is inconclusive: 14.1 µM [inhibitor, partial curve].

With `CCCc1nc(SCC(=O)c2ccc(F)cc2)c2ccccc2n1` as the compound, how does the “activity change, negative = inhibition” value read?
Its value is inactive: 25.1%.

How did the “activity change, negative = inhibition” value turn out when `Cn1c(=O)cc(SCC(=O)NCc2ccc(F)cc2)c2cc(Cl)ccc21` was run?
The value was inactive: 38.8%.

Which Potency does the source give for `Cc1ccc(S(=O)(=O)N2CN(Cc3ccco3)c3nc4ccccc4nc32)cc1C` here?
The Potency was inconclusive: 70.8 µM [inhibitor, single point].

`O=C(CC(C(=O)O)n1ccnc1)c1ccc(Cl)cc1` (stereo not given) was tested. Which Potency did it give?
Its Potency is active: 1.78 µM.

For `CN(C)S(=O)(=O)Oc1ccc(C(=O)Nc2cccc(Cl)c2)cc1`, which “activity change, negative = inhibition” value is on record?
The value was inactive: 1.41%.

How did the Potency turn out when `Clc1ccc(CSc2nnc(-c3cccnc3)n2Cc2ccco2)c(Cl)c1` was run?
Its Potency is active: 39.8 µM.

For `O=C(c1ccc([N+](=O)[O-])s1)N1CCN(c2cccc(Cl)c2)CC1`, which Potency is on record?
Its Potency is inconclusive: 39.8 µM [inhibitor, partial curve].

How did the Potency turn out when `N#Cc1ccc(C(=O)CN2CCN(c3ccccc3)CC2)cc1` was run?
Its Potency is active: 50.1 µM.

How did the Potency turn out when `COc1cc(C2C(C(=O)c3ccc(C)o3)=C(O)C(=O)N2c2cc(C)on2)cc(OC)c1OC` (stereo not given) was run?
Its Potency is inconclusive: 79.4 µM [inhibitor, single point].

With `Cc1cc2oc(=O)c(CC(=O)O)c(C)c2c2occ(-c3ccccc3)c12` as the compound, how does the “activity change, negative = inhibition” value read?
The value was inactive: 27.2%.

`O=[N+]([O-])c1ccc(NNC(=S)Nc2ccc(F)cc2)cc1` was tested. Which “activity change, negative = inhibition” value did it give?
The value was inactive: -18.9%.

`CCOC(=O)c1[nH]c2c(c1Cc1ccccc1)C(=O)CC(c1ccccc1)C2` (stereo not given) was tested. Which “activity change, negative = inhibition” value did it give?
Its value is inactive: 16.9%.

For `CNC(=S)N/N=C/c1cc(C)n(-c2ccc(Cl)c(Cl)c2)c1C`, which Potency is on record?
The Potency was inconclusive: 15.8 µM [inhibitor, full curve, poor fit].

For `Cc1ccc(/C=C/C(=O)NCc2ccc3c(c2)OCO3)o1`, which Potency is on record?
The Potency was inconclusive: 89.1 µM [inhibitor, single point].

`CC(=O)N1CCN(c2nc(N)c(C#N)c(CC#N)c2C#N)CC1` was tested. Which Potency did it give?
The Potency was inconclusive: 7.94 µM [inhibitor, partial curve, poor fit].

Which “activity change, negative = inhibition” value does the source give for `CC(=O)Nc1ccc(C)cc1-c1nc2ccccc2n(CC(=O)c2ccc(C)c(C)c2)c1=O` here?
The value was inactive: -0.625%.

Which “activity change, negative = inhibition” value does the source give for `Cc1sc2ncnc(N3CCC(C(=O)N(C)CC(=O)Nc4ccccc4Br)CC3)c2c1C` here?
Its value is inactive: 6.94%.

Which “activity change, negative = inhibition” value does the source give for `CCOc1ccccc1NS(=O)(=O)c1ccc(N2CCCCS2(=O)=O)cc1` here?
Its value is inactive: 9.57% [at 57.1 µM].

How did the Potency turn out when `CCOc1ccccc1N1CCN(C2=C(NS(=O)(=O)c3cccs3)C(=O)c3ccccc3C2=O)CC1` was run?
The Potency was inconclusive: 15.8 µM [inhibitor, partial curve].

With `CCc1cc(=O)oc2c3c(cc(OCC(=O)NCCCOC)c12)OC(C)(C)CC3` as the compound, how does the Potency read?
The Potency was inconclusive: 39.8 µM [inhibitor, single point].

Which Potency does the source give for `N#Cc1c2c(c(-c3ccccc3Cl)[nH]c1=S)CCCC2` here?
The Potency was inconclusive: 22.4 µM [inhibitor, partial curve].

How did the Potency turn out when `OC(C[n+]1c(Cl)ccc2ccccc21)c1ccccc1` (stereo not given) was run?
Its Potency is active: 39.8 µM.

For `CC(=O)N(C(C)=O)N1C(=O)C2C3c4ccccc4C(c4ccccc43)C2C1=O` (stereo not given), which Potency is on record?
Its Potency is inconclusive: 20 µM [inhibitor, single point].

How did the Potency turn out when `Cc1cc(C)cc(NC(=O)CSc2ccc(-c3cccs3)nn2)c1` was run?
The Potency was “inactive”.

Which Potency does the source give for `O=C(NCCCc1ccccc1)c1ccc(CS(=O)Cc2ccccc2Cl)o1` (stereo not given) here?
Its Potency is inconclusive: 56.2 µM [inhibitor, partial curve, poor fit].

`Cc1ccc(S(=O)(=O)c2nc(-c3ccccc3F)oc2N2CC(C)OC(C)C2)cc1` (stereo not given) was tested. Which Potency did it give?
Its Potency is inconclusive: 35.5 µM [inhibitor, partial curve].

With `Cc1ccc(N(CCC#N)C(=O)CCl)cc1C` as the compound, how does the Potency read?
Its Potency is inconclusive: 25.1 µM [inhibitor, full curve].

For `O=c1cc(N2CCC3(CC2)OCCO3)[nH]c(=O)n1C1CCCCC1`, which Potency is on record?
Its Potency is inconclusive: 56.2 µM [inhibitor, partial curve, poor fit].

Which Potency does the source give for `CC(C)(C)OC(=O)N1CC=C2C(C#N)=C(N)C(C#N)(C#N)[C@H](c3cccnc3)[C@H]2C1` here?
The Potency was active: 39.8 µM.

Which Potency does the source give for `CCOC(=O)c1[nH]c2ccc(Br)cc2c1NC(=O)CCN1CCC(C)CC1` here?
The Potency was inconclusive: 100 µM [inhibitor, single point].

With `CCOc1ccc2[nH]c(=O)c(C(c3nnnn3Cc3ccco3)N3CCC(C)CC3)cc2c1` (stereo not given) as the compound, how does the Potency read?
The Potency was inconclusive: 63.1 µM [inhibitor, single point].

How did the Potency turn out when `O=C(NCCCN1CCCCCC1)c1ccc2c(Cl)c3c(nc2c1)CCCC3` was run?
Its Potency is inconclusive: 89.1 µM [inhibitor, single point].

For `CCCS(=O)(=O)c1c(S(=O)(=O)CCC)c2c(N)cccn2c1C(=O)OC`, which Potency is on record?
Its Potency is active: 7.94 µM.

`O=C1NC(c2ccccc2Br)=N/C1=C\c1ccco1` was tested. Which Potency did it give?
Its Potency is inconclusive: 44.7 µM [inhibitor, partial curve, poor fit].

How did the Potency turn out when `CCCCN(C(=O)c1cccc(C)c1)c1c(N)n(CCC)c(=O)[nH]c1=O` was run?
Its Potency is inconclusive: 89.1 µM [inhibitor, single point].

With `COc1cc(/C=C/C(=O)C2C(=O)C=C(C)OC2=O)cc(OC)c1O` (stereo not given) as the compound, how does the Potency read?
The Potency was inconclusive: 39.8 µM [inhibitor, partial curve].

Which “activity change, negative = inhibition” value does the source give for `COc1ccc(Cl)cc1NC(=O)c1cnc2sc(N3CCOCC3)nn2c1=O` here?
Its value is inactive: 2.89% [at 57.1 µM].

How did the “activity change, negative = inhibition” value turn out when `COc1ccc(/C=C/C(=O)Nc2cc(S(=O)(=O)N3CCCCC3)ccc2N2CCCCC2)cc1OC` was run?
The value was inactive: -15.7%.

For `CCOC(=O)N1CCN(C(=O)CS(=O)Cc2nc(-c3ccc(C)cc3)oc2C)CC1` (stereo not given), which Potency is on record?
The Potency was inconclusive: 22.4 µM [inhibitor, single point].

How did the “activity change, negative = inhibition” value turn out when `O=C(CCN1CCOCC1)N/N=C/c1cc(Br)cc(Br)c1O` was run?
The value was inactive: 4.64% [at 57.1 µM].

`COc1ccc(CCNC(=O)C2CCCN(c3ncnc4c3nc3n4CCCCC3)C2)c(OC)c1` (stereo not given) was tested. Which Potency did it give?
Its Potency is inconclusive: 89.1 µM [inhibitor, partial curve, poor fit].

With `O=C(Nc1nc2ccccc2s1)c1cc(-c2ccco2)nc2ccccc12` as the compound, how does the Potency read?
The Potency was inconclusive: 22.4 µM [inhibitor, single point].

`CCC(c1nnnn1Cc1ccc(OC)cc1)N(CCCO)Cc1cc2cc3c(cc2[nH]c1=O)OCO3` (stereo not given) was tested. Which Potency did it give?
The Potency was inconclusive: 70.8 µM [inhibitor, single point].

For `O=C1/C(=C/c2ccccn2)SC(=S)N1Nc1ncc(C(F)(F)F)cc1Cl`, which Potency is on record?
Its Potency is inconclusive: 50.1 µM [inhibitor, partial curve].

`CCCOc1ccc(N2C(=O)CC(SCCN)C2=O)cc1` (stereo not given) was tested. Which Potency did it give?
Its Potency is active: 79.4 µM.

`CN(C(=O)CS(=O)(=O)c1cn(CC(=O)N2CCCC2)c2ccccc12)c1ccccc1` was tested. Which Potency did it give?
Its Potency is inconclusive: 89.1 µM [inhibitor, single point].

With `O=C(CCS(=O)(=O)c1ccccc1)N(CCCN1CCOCC1)c1nc2c(F)cccc2s1` as the compound, how does the Potency read?
The Potency was active: 3.16 µM.

How did the “activity change, negative = inhibition” value turn out when `Cc1nn(C(C)C(=O)Nc2ccccc2C(F)(F)F)c(=O)c2c1sc1ccccc12` (stereo not given) was run?
Its value is inactive: 15.1%.

`C/C(CC(=O)Nc1ccc(N(C)C)cc1)=N\NC(=O)c1cnccn1` was tested. Which Potency did it give?
The Potency was inconclusive: 44.7 µM [inhibitor, partial curve, poor fit].

Which “activity change, negative = inhibition” value does the source give for `O=c1c2[nH]c3ccccc3c2nc2n1CCS2` here?
Its value is inactive: 31.1% [at 57.1 µM].

Which “activity change, negative = inhibition” value does the source give for `CCOc1ccc(C(=O)Nc2cc3c(cc2N2CCCC2)n(C)c(=O)c(=O)n3C)cc1OCC` here?
The value was inactive: -10.1%.

Which “activity change, negative = inhibition” value does the source give for `CCOC(=O)C1=C(C)Nc2ncnn2C1c1c[nH]c2ccccc12` (stereo not given) here?
Its value is inactive: 2.73% [at 57.1 µM].

`Cc1cccc(-c2nc3nc(C)cc(NC(C)c4ccccc4)n3n2)c1` (stereo not given) was tested. Which “activity change, negative = inhibition” value did it give?
Its value is inactive: -6.51% [at 57.1 µM].

— PubChem BioAssay AID588453 (National Center for Advancing Translational Sciences (NCATS), 2011)
